{"source": "paper PMC7653511", "about": "(Journal of immunology (Baltimore, Md. : 1950), 2020)", "tested_on": "HLA-E*01:01, HLA-E*01:03 and Mamu-E", "assay": "Binding capacity of norleucine fluorescent standard peptide", "settings": "norleucine vs methionine in position 2 of fluorescent standard peptide"}
{"sequence": "VXAPCTLLL", "values": [{"measurement": "Binding capacity", "value": "maintaining the binding capacity of methionine"}]}
